The values that follow are results of earlier work, collected in PMC12064607 (Clinical Pharmacokinetics, 2025).

Usually EC50 stands for the concentration needed to bring the measured effect to its halfway point.

Each structure is given as a SMILES string.

Data set [1] concerns UT-NC002-1T/Human/2020/Tokyo. The conditions noted are these: cited from earlier work.
For data set [2] the following is noted: human, in vivo; cited from earlier work.

Consider `CCC(CC)COC(=O)[C@H](C)N[P@](=O)(OC[C@H]1O[C@@](C#N)(c2ccc3c(N)ncnn23)[C@H](O)[C@@H]1O)Oc1ccccc1` [Remdesivir, reference compound], for which the EC50 in data set [1] is 1700 nM. For the same compound, the volume of distribution in data set [2] is reported as 157 L.
